Source: the supplement of paper PMC3334620
Whole data set: some 33,000 sequences, median “E-score (-0.5 to 0.5)” near -0.013, cut for the highest 2% near 0.3. The list shows a part of the results.

target: T1, Msn1 (UniProt P22148); assay: PBM E-score (8-mer binding enrichment) (E-score (-0.5 to 0.5)); higher = stronger / more preferred TF binding; most listed sequences are background and not binding sites; conditions: protein concentration: 200 nM; construct: GST-full length
T1 sequence: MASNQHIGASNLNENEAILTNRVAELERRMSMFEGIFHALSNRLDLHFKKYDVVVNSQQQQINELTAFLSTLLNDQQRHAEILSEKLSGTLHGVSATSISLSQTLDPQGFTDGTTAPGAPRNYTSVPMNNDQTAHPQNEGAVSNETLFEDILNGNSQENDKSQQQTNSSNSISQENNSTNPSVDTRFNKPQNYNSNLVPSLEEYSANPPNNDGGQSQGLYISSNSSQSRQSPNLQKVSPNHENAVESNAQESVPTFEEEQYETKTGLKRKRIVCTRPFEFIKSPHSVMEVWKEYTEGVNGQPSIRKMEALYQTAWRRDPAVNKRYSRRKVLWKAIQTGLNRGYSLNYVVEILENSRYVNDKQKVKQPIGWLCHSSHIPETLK
In short: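 For each ungapped eight-base word taken together with its reverse complement, the Universal PBM Analysis Suite assigned an E-score. Binding data came from GST-tagged yeast transcription factors, applied at about 100-200 nM, on universal all-10-mer Agilent arrays made double-stranded by primer extension. Fluorescent anti-GST marked bound protein, and scans were normalised with masliner.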

Sequence | PBM E-score
ATTCCCAA | 0.0317
GCGGGCCC | -0.236
GGTCCTTA | 0.0291
AGATTCCG | 0.151
ACTGCTCA | -0.0561
ATCGCATA | 0.0796
GAAAACCA | 0.00945
ATGGGATA | 0.0634
ATCCAAAT | 0.0126
TGACTCAA | 0.0492
ATTCAAGA | 0.0718
GACGAACA | 0.0827
AGAGAGCT | -0.241
CCAGGCCG | 0.0204
CGCACATA | -0.196
CAAAAGGA | 0.261
AGTTGGGG | -0.0303
GTCCTCAC | 0.263
AAGTACAC | 0.192
CTCGTCTA | -0.023
AACGGCTA | -0.0678
AAGCAATA | -0.0415
ATAGGCCC | -0.2
CGCTAGTC | -0.0714
GGCAGAAA | 0.213

Sequence | PBM E-score
GAATAGCA | 0.0221
GTAGTTTA | 0.1
CCTTTTTC | -0.113
AGACAGTG | 0.00899
AGAATTCT | 0.242
CCTGTCGC | 0.0187
ATGTCTGG | 0.323
AGGGAATG | -0.0775
AGACTTTA | 0.0848
GAAATCTA | -0.139
AGCACAGA | 0.055
ACCTAACA | 0.0355
CAAGGACG | 0.148
ACTTGAGG | -0.0853
GCTGCACA | -0.161
GAAACGAC | 0.088
ACCCCGTA | 0.0488
AAAAAAAC | 0.0568
GACTGTGC | -0.137
CCCCTGCG | -0.308
CCGACCCA | -0.0978
CGCCGGCA | -0.094
CAAAGGCC | -0.119
ACGGGCCA | -0.188
ACTGAACG | -0.0612

Sequence | PBM E-score
GTGACAGA | 0.161
CTTGAGGC | -0.148
AACAGTAC | -0.0277
ACGCTGGC | -0.118
AAGTACGC | -0.0577
ATTGTACA | 0.242
TTATGCAA | -0.0731
CAGATATA | 0.106
CACGCTCC | -0.282
CGAATCCG | 0.128
CCCCCCCG | -0.379
ATTCGCGA | 0.0755
ATAGTCAT | 0.0623
AAAAGCCT | -0.221
AGCCTTTC | -0.0837
GAAGTCAA | -0.105
ATTCAACA | -0.0659
AATCCTTA | -0.134
CCTTTAAC | 0.125
AGCCTCCC | -0.265
ATACACTA | 0.183
CCCGGGCC | -0.127
ATGTGGCG | -0.0986
GTGTATAA | -0.126
GCCCTCGC | -0.139

Sequence | PBM E-score
CCGACTGA | -0.00771
CACACTCA | 0.102
CCGACGCC | -0.0386
AATAGGGT | 0.0002
CCTGATTA | 0.00881
AGATCGGA | 0.254
ACAGTACA | 0.189
AATTGTCC | 0.488
ACACAAAG | 0.0861
CAAATCAA | 0.126
CCGCACAC | -0.0527
CAAGTATG | 0.174
TCGAGCGA | 0.121
GAAACGGA | 0.202
GGCCACAA | -0.00651
CGAAGCCC | -0.167
AAGCAGTG | -0.137
CGCAGGCC | 0.0695
CGCGCGTC | 0.242
CGCAGCGA | 0.0945
ATATGAGG | -0.0544
ATTGTCGC | 0.344
CCTCTATA | -0.229
ACGAAAAA | 0.23
CCCCGCAG | -0.105

Sequence | PBM E-score
GGGTCCCA | -0.216
CCGGCACG | -0.0469
AAAGCTAG | 0.0353
CTCGAGGC | -0.143
CGGCTAAG | 0.0144
ACTGTATG | 0.0365
CGGCCAGA | 0.0515
ACGGCTAG | -0.218
GGTGACTA | -0.074
AACCCATT | 0.13
CCTGATGC | 0.147
ATACCCAG | -0.149
ATTGAACA | 0.124
CCCGAGAA | 0.0155
AGGTGACG | -0.168
AAGAGTCG | 0.00939
CGTGTAGA | -0.0556
CACGTCAC | -0.02
GGGATCCA | 0.00832
ATATAACG | 0.101
CGTACGGC | -0.134
CAATATAA | 0.166
TGCGAGCA | -0.0671
TGCAAGAA | 0.0972
CCTCCGAG | -0.0927

Sequence | PBM E-score
GGATCGGA | 0.072
GAATGGAA | 0.124
AAGGGTAA | -0.0625
CCAGAGGA | -0.0856
AAATCAGG | -0.0179
CCGAACGC | 0.158
ACACGAGG | -0.0456
GATGGTCA | -0.0299
CGAAATCG | 0.0598
CTGAACAA | 0.0941
CTTAGATC | 0.0107
CGCTCCCG | -0.226
CTGTGCCA | -0.0517
CGCGCCGC | 0.13
CATGGACG | 0.137
ACCAACCC | -0.122
AGAATTAT | 0.0891
ACAGCTGA | -0.0496
ACGTCGGA | -0.0834
AGGTTCAG | -0.061
CTTCCTCC | -0.239
CTTAAAAA | 0.0876
AACGCGTG | 0.0608
CTAAGCTA | -0.0424
AAGTCACC | -0.0109

Sequence | PBM E-score
AGTCGGGC | -0.0664
ACTGCTCC | -0.046
GGAGCTGA | -0.102
CTCTTGGA | -0.016
CCAGGGAG | -0.331
ATTGACTA | -0.0987
GGCCGTCA | -0.153
GAAATCTC | -0.0374
CATCCTTA | -0.116
AGAAGGGG | -0.266
CCGCCTCA | -0.171
CCTGCGCG | -0.124
ACGTTAAC | 0.0282
CGAAGATA | 0.0502
ACATTCAC | 0.223
ACGCTCTG | -0.116
CCACCATA | -0.22
ATTTGATG | -0.00854
GTCTCCCA | -0.172
AGGATCTC | -0.137
AAACACTC | 0.103
AGCACACA | -0.143
